Measured values: PubChem BioAssay AID686979 (National Center for Advancing Translational Sciences (NCATS), 2013)
Where “and” joins values, the source holds several entries; their conditions need not be identical. Equal entries are not always repeated. In all, about 420,000 compounds went through this assay and about 50,000 (12%) were called active. The shares of active, inactive and inconclusive entries below differ from those in the screen. The call rests on the fitted dose curve; in most records, active means well fitted inhibition curve with a large enough effect; inconclusive means small, poorly fitted or top-dose-only effect; inactive means flat fitted curve, though single readings scatter. Potencies beside an inconclusive call are fits to weak or partial responses and may not hold up.

test: qHTS for Inhibitors of human tyrosyl-DNA phosphodiesterase 1 (TDP1): qHTS in cells in presence of CPT; conditions: chicken DT40 Tdp1-/-;hTDP1 cells + 20 nM CPT, ATP luminescence, 48 h; activity change, negative = growth inhibition: at 46.2 µM (top of the series); further: nearly all actives have a fitted effect of over 55% in size
Summary of the method: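 Chicken DT40 Tdp1-/- cells complemented with human TDP1, 400 cells/well, exposed to compounds plus 20 nM camptothecin for at least 48 h at 37 C; viability read as ATP content by CellTiter-Glo luminescence.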
On the % scale 0 is the no-effect control and ±100 the full control effect; potency means the concentration at half of the fitted maximal effect; tags describe the fitted curve by direction and shape.

Q: With COC(=O)c1c(-c2ccc(N(C)C)cc2)oc2c1C(OC)CCC2 (stereo not given) as the compound, how does the Potency read?
A: inconclusive: 29.1 µM [inhibitor, single point]

Q: Which Potency does the source give for C/C(=N\NC(=O)c1cccc(N/N=C(\C)c2cc(O)ccc2O)c1)c1cc(O)ccc1O here?
A: active: 11.6 µM

Q: For CCCCCC(N)=O, which Potency is on record?
A: inactive

Q: With NS(=O)(=O)c1ccc(CCNC(=O)/C=C/c2cccc([N+](=O)[O-])c2)cc1 as the compound, how does the Potency read?
A: inconclusive: 9.2 µM [inhibitor, partial curve, poor fit]

Q: With OC(c1cc(F)cc(Cl)c1)c1ncc(-c2ccccc2C(F)(F)F)[nH]1 (stereo not given) as the compound, how does the Potency read?
A: inconclusive: 18.4 µM [inhibitor, single point]

Q: For CC1Cc2ccccc2N1C(=S)NC(=O)C1(C)CC1(Cl)Cl (stereo not given), which Potency is on record?
A: inconclusive: 29.1 µM [inhibitor, single point]

Q: With O=C(NCCN1CCN(C(=O)c2c(F)cccc2F)CC1)C(=O)Nc1ccc(Cl)cc1 as the compound, how does the Potency read?
A: inconclusive: 25.9 µM [inhibitor, single point]

Q: Which Potency does the source give for CCc1noc(C)c1C(=O)N(C)CC(=O)Nc1ccc(Cl)c(Cl)c1 here?
A: inconclusive: 25.9 µM [inhibitor, single point]

Q: For COc1ccccc1N(C(=O)c1snc(C(N)=O)c1N)C(C(=O)NCc1ccccc1)c1ccc(C)o1 (stereo not given), which Potency is on record?
A: inconclusive: 23.1 µM [inhibitor, single point]

Q: Which Potency does the source give for Cc1cc(C(=O)N2CCCC(C)(C(=O)NS(=O)(=O)C3CC3)C2)nn1C(C)(C)C (stereo not given) here?
A: inconclusive: 5.17 µM [inhibitor, full curve, poor fit]

Q: With CCn1c(CN2CCN(Cc3ccc(C)cc3)C(CCO)C2)nc2ccccc21 (stereo not given) as the compound, how does the Potency read?
A: inactive

Q: With Cc1nc(Nc2ccc3c(c2)OCCO3)c2c(C)c(C)sc2n1 as the compound, how does the Potency read?
A: inconclusive: 16.4 µM [inhibitor, partial curve, poor fit]

Q: With CCOc1ccc(N(C)C(=O)C2CCN(S(=O)(=O)c3ccc4c(c3)CCCN4C(C)=O)CC2)cc1 as the compound, how does the Potency read?
A: inconclusive: 29.1 µM [inhibitor, single point]

Q: For Cc1ccc2cc(CN(CCO)Cc3nnnn3Cc3ccc(F)cc3)c(=O)[nH]c2c1, which Potency is on record?
A: inconclusive: 18.4 µM [inhibitor, partial curve]

Q: With CCOC(=O)CC1C(=O)NCCN1S(=O)(=O)c1ccc(Cl)cc1 (stereo not given) as the compound, how does the Potency read?
A: inactive

Q: With C/C(CC1CC(C)(C)OC1=O)=N\NC(N)=S (stereo not given) as the compound, how does the Potency read?
A: inactive

Q: With O=c1[nH]c(CN2CCCCC2)nc2c1C1(CCCCC1)Cc1ccccc1-2 as the compound, how does the Potency read?
A: active: 13 µM

Q: With C[C@H]1C[C@H]2[C@@H]3CCC4=CC(=O)C=C[C@]4(C)[C@@]3(Cl)[C@@H](O)C[C@]2(C)[C@@]1(O)C(=O)CO as the compound, how does the activity change, negative = growth inhibition read?
A: inconclusive: 6.29% [inhibitor]

Q: For Cc1ccc(C(=O)O)cc1NC(=O)c1ccc2c(c1)C(=O)N(c1ccc([N+](=O)[O-])cc1)C2=O, which Potency is on record?
A: inactive

Q: Which Potency does the source give for CCOc1ccc(S(=O)(=O)N2CCCC(C(=O)NCc3cccnc3)C2)cc1Cl (stereo not given) here?
A: inconclusive: 29.1 µM [inhibitor, single point]

Q: Which Potency does the source give for CC(C)(CNS(=O)(=O)c1ccc(F)cc1)CNS(=O)(=O)c1ccc(F)cc1 here?
A: inactive

Q: Which Potency does the source give for CCOC(=O)c1c(C)[nH]c(C)c1C(=O)CSc1nc2ccccc2n1CCOC here?
A: inconclusive: 20.6 µM [inhibitor, single point]

Q: Which Potency does the source give for COc1ccc(S(=O)(=O)N2c3cc(Cl)ccc3Oc3nc4ccccc4nc32)cc1 here?
A: active: 0.731 µM

Q: With O=C(C[C@H]1CC[C@@H](NC(=O)C2CC2)[C@@H](CO)O1)NCc1ccccc1Cl as the compound, how does the Potency read?
A: inactive

Q: With O=C(NCc1ccccn1)c1nc(-c2cccs2)no1 as the compound, how does the Potency read?
A: inactive

Q: With COc1ccc(SC[C@H](C)CN2CC[C@H](C)CCC2=O)cc1 as the compound, how does the Potency read?
A: inconclusive: 35.5 µM [inhibitor, single point] and inconclusive: 29.1 µM [inhibitor, single point]

Q: Which Potency does the source give for FC(F)(F)c1cc(C(F)(F)F)c2ccc(N/N=C/c3ccccc3)nc2n1 here?
A: inactive

Q: For CCOC(=O)C1CCN(S(=O)(=O)C(F)(F)c2nc3ccccc3s2)CC1, which Potency is on record?
A: inconclusive: 29.1 µM [inhibitor, partial curve]

Q: For Cn1nc(C(F)(F)F)cc1C(=O)Nc1ccc(-c2ccno2)cc1, which Potency is on record?
A: inconclusive: 29.1 µM [inhibitor, single point]

Q: For O=S(=O)(c1ccccc1)c1nnn2c1nc(Nc1ccccc1)c1cc(Cl)ccc12, which activity change, negative = growth inhibition is on record?
A: inconclusive: -2.47% [inhibitor]

Q: For Cc1ccc(Cl)cc1N1CCN(C(=O)Cn2ncc3c([nH]c4ccccc43)c2=O)CC1, which Potency is on record?
A: inconclusive: 20.6 µM [inhibitor, partial curve]

Q: For OC[C@@H]1CN(Cc2ccc(-c3ccccc3)cc2)C[C@H](n2cnc3c(Nc4ccccc4)ncnc32)O1, which Potency is on record?
A: active: 4.11 µM

Q: For O=C(OCC(=O)N1CCN(C(=O)c2ccco2)CC1)c1cn(-c2ccccc2)nc1-c1ccccc1, which Potency is on record?
A: inconclusive: 29.1 µM [inhibitor, single point]

Q: For COc1cccc(-n2c(=O)c3sc4ccccc4c3n(CC(=O)Nc3ccccc3OC)c2=O)c1, which Potency is on record?
A: active: 9.2 µM

Q: Which Potency does the source give for CNC(=S)N1CCN(S(=O)(=O)c2ccc3ccccc3c2)CC1 here?
A: inactive

Q: For Cc1cc(C)n(CCC(=O)N/N=C/c2cccc([N+](=O)[O-])c2)n1, which Potency is on record?
A: inactive

Q: Which Potency does the source give for COc1ccc(C2=NN(c3nc(-c4ccc(CNC(C)=O)cc4)cs3)C(c3ccco3)C2)cc1 (stereo not given) here?
A: active: 20.6 µM

Q: With FC(F)(F)c1ccc(C2[C@H]3CN(Cc4ccc(-c5ccccc5)cc4)[C@H](c4ccccc4)C34CC2(c2ccccc2)C4)cc1 (stereo not given in full) as the compound, how does the Potency read?
A: inconclusive: 29.1 µM [inhibitor, single point]

Q: Which Potency does the source give for CCOc1cc(S(=O)(=O)NCCCN2CCOCC2)ccc1F here?
A: inactive

Q: Which Potency does the source give for COc1ccc2nc(NC(=O)c3ccoc3C)sc2c1 here?
A: inconclusive: 11.6 µM [inhibitor, partial curve]

Q: Which Potency does the source give for O=C(O)CCCC(=O)N1CCc2cc(S(=O)(=O)NCc3ccc(F)cc3)ccc21 here?
A: inactive

Q: Which Potency does the source give for O=C(CSc1nnc(-c2ccc(F)cc2)c2ccccc12)Nc1ccccc1 here?
A: inconclusive: 29.1 µM [inhibitor, single point]

Q: Which Potency does the source give for OC[C@@H]1O[C@@H](n2cnc3c(NC4CCCC4)ncnc32)[C@H](O)[C@H]1O here?
A: inactive

Q: Which Potency does the source give for Cc1ccc(C)c(N2CCN(CCCNC(=O)Cn3cccc3C(=O)c3ccccc3C)CC2)c1 here?
A: active: 2.59 µM

Q: For CN(C(=O)CSc1nc(N)c2c3c(sc2n1)CSC(C)(C)C3)c1ccccc1, which Potency is on record?
A: active: 16.4 µM

Q: For Cc1ccc(-n2nnnc2SCC(=O)Nc2ncc(Cc3ccccc3Cl)s2)cc1, which Potency is on record?
A: inactive

Q: With Cc1cc(C)cc(NC(=O)C(NS(=O)(=O)c2cccc3nsnc23)c2ccccc2)c1 (stereo not given) as the compound, how does the Potency read?
A: inconclusive: 13 µM [inhibitor, partial curve]

Q: Which Potency does the source give for Cc1ccccc1OC(C)C(=O)Nc1ccc2c(c1)OCCO2 (stereo not given) here?
A: inactive

Q: For O=C(OCCc1cc2ccccc2c(=O)o1)c1ccc(C(F)(F)F)cc1, which Potency is on record?
A: inactive

Q: With Cc1ccc(C(=O)CNc2ccccc2C)cc1 as the compound, how does the Potency read?
A: inactive

Q: With Cc1cccc(C)c1NC(=S)Nc1ccc(Cl)c(Cl)c1 as the compound, how does the Potency read?
A: inconclusive: 29.1 µM [inhibitor, single point]

Q: With N#Cc1nc(COc2cccc(Cl)c2)oc1N1CCN(c2ccccc2)CC1 as the compound, how does the Potency read?
A: inconclusive: 32.6 µM [inhibitor, partial curve, poor fit]

Q: With O=C(Cc1ccccc1Cl)NCc1cccnc1 as the compound, how does the Potency read?
A: inactive

Q: For OC(COC(c1ccc(Cl)cc1)c1ccc(Cl)cc1)CN1CCCC1 (stereo not given), which Potency is on record?
A: inconclusive: 20.6 µM [inhibitor, single point]

Q: Which Potency does the source give for CCCCOc1nnc(-c2ccc(OCC)cc2)c2ccccc12 here?
A: inconclusive: 29.1 µM [inhibitor, single point]

Q: With O=C(COC(=O)CC1CC2CCC1C2)Nc1ccc(Cl)c(S(=O)(=O)N2CCOCC2)c1 (stereo not given) as the compound, how does the Potency read?
A: active: 16.4 µM

Q: For CSC1=NC(C)N2C(SC)=NC(C)N12 (stereo not given), which Potency is on record?
A: inactive

Q: Which Potency does the source give for Cc1ccc2nc(C)c(C(=O)N/N=C/c3cccc([N+](=O)[O-])c3)cc2c1 here?
A: inconclusive: 20.6 µM [inhibitor, single point]

Q: With COc1cccc(-c2ccc3ncnc(Nc4ccccc4)c3c2)c1 as the compound, how does the Potency read?
A: inconclusive: 18.4 µM [inhibitor, single point]

Q: With Cc1ccc(S(=O)(=O)NCCC(=O)N2CCC(C(N)=O)CC2)cc1C as the compound, how does the Potency read?
A: inactive

Q: Which Potency does the source give for C#CCOCCOCCOCCNc1nc(N2CCN(C(=O)CCCCCCCCCCNC(=O)Cn3cc(CCCCCN)nn3)CC2)nc(N2CCN(C(=O)CCCCCCCCCCNC(=O)[C@H]([C@@H](C)CC)n3cc(CCCCN=C(N)N)nn3)CC2)n1 here?
A: active: 20.6 µM

Q: For CCOc1ccc(S(=O)(=O)NCc2cccs2)cc1C(C)C, which Potency is on record?
A: inconclusive: 29.1 µM [inhibitor, single point]

Q: Which Potency does the source give for Cc1ccc(-c2nn(-c3ccccc3)cc2/C=C2\SC(=S)N(CC(=O)O)C2=O)cc1 here?
A: inconclusive: 29.1 µM [inhibitor, single point]

Q: With CCN(CC(=O)Nc1ccc2c(c1)OCCO2)C(=O)/C=C/c1ccc(OC)cc1OC as the compound, how does the Potency read?
A: inconclusive: 16.4 µM [inhibitor, single point]

Q: For COc1ccc(-c2noc(CSc3nnc(Cc4ccccc4)n3-c3cccc(C)c3)n2)cc1OC, which Potency is on record?
A: active: 16.4 µM

Q: With Cc1ccc(C2(C)NC(=O)N(CC(=O)N3CCc4ccccc43)C2=O)cc1 (stereo not given) as the compound, how does the Potency read?
A: inactive

Q: Which Potency does the source give for COc1ccc(C(CC(=O)Nc2cc([N+](=O)[O-])ccc2OC)c2ccccc2)cc1 (stereo not given) here?
A: active: 16.4 µM

Q: For Cc1ccc(NC(=S)NC(=O)C2CCCCC2)c(Br)c1, which Potency is on record?
A: inconclusive: 18.4 µM [inhibitor, single point]

Q: For CO/N=C(\C(=O)O)c1csc(NN=C(C)C)n1, which Potency is on record?
A: inconclusive: 13 µM [inhibitor, single point]

Q: With O=C(N/N=C\c1ccc(CNS(=O)(=O)c2ccc(Cl)cc2)o1)C(=O)Nc1ccc(Oc2ccccc2)cc1 as the compound, how does the Potency read?
A: active: 2.91 µM
